Test results taken from paper PMC8760265.
Changes are numbered by the printed parent chain. In names and notes the source's numbering stands. No constants are given. Whether binding was seen depends on the method and setting. Binding seen in cells or lysates may run through a third protein. Some binding calls cover weakened binding; strength is not graded here. Sequences can lack the tags named with a protein. Values belong to the binder of their own block, whether it stands above or below them.

Protein sequences, listed by entry. Tags and fused reporters are not part of them.
UniProt P50750: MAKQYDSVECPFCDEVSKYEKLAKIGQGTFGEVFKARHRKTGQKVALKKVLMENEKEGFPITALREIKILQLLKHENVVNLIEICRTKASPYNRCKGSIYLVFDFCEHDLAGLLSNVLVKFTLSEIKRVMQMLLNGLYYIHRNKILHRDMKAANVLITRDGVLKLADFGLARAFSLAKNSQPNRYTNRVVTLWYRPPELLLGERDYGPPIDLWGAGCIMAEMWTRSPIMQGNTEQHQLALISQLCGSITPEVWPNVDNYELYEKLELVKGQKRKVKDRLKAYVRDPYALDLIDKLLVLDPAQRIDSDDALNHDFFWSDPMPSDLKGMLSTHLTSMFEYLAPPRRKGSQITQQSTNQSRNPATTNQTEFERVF

Target: FLAG-CDK9 (UniProt P50750)
Test: co-IP; SUM159 cells co-transfected with FLAG-CDK9 and HA-tagged TRIM28-WT, -S824A or -S824D; IP with FLAG Ab or HA Ab; immunoblot

binding: binds weakly
B1: HA-tagged TRIM28-S824A (protein, UniProt Q13263 1-835)
chain: MAASAAAASAAAASAASGSPGPGEGSAGGEKRSTAPSAAASASASAAASSPAGGGAEALELLEHCGVCRERLRPEREPRLLPCLHSACSACLGPAAPAAANSSGDGGAAGDGTVVDCPVCKQQCFSKDIVENYFMRDSGSKAATDAQDANQCCTSCEDNAPATSYCVECSEPLCETCVEAHQRVKYTKDHTVRSTGPAKSRDGERTVYCNVHKHEPLVLFCESCDTLTCRDCQLNAHKDHQYQFLEDAVRNQRKLLASLVKRLGDKHATLQKSTKEVRSSIRQVSDVQKRVQVDVKMAILQIMKELNKRGRVLVNDAQKVTEGQQERLERQHWTMTKIQKHQEHILRFASWALESDNNTALLLSKKLIYFQLHRALKMIVDPVEPHGEMKFQWDLNAWTKSAEAFGKIVAERPGTNSTGPAPMAPPRAPGPLSKQGSGSSQPMEVQEGYGFGSGDDPYSSAEPHVSGVKRSRSGEGEVSGLMRKVPRVSLERLDLDLTADSQPPVFKVFPGSTTEDYNLIVIERGAAAAATGQPGTAPAGTPGAPPLAGMAIVKEEETEAAIGAPPTATEGPETKPVLMALAEGPGAEGPRLASPSGSTSSGLEVVAPEGTSAPGGGPGTLDDSATICRVCQKPGDLVMCNQCEFCFHLDCHLPALQDVPGEEWSCSLCHVLPDLKEEDGSLSLDGADSTGVVAKLSPANQRKCERVLLALFCHEPCRPLHQLATDSTFSLDQPGGTLDLTLIRARLQEKLSPPYSSPQEFAQDVGRMFKQFNKLTEDKADVQSIIGLQRFFETRMNEAFGDTKFSAVLVEPPPMSLPGAGLSAQELSGGPGDGP

binding: binds
B2: HA-tagged TRIM28-S824D (protein, UniProt Q13263 1-835)
chain: B1 chain with A824D
